Over roughly 110,000 compounds, “z-score” has its median near -0.1; the highest 2% begin near 2. The list shows a part of the results.
target: Metabotropic glutamate receptor 8 (Rattus norvegicus) (UniProt P70579); experiment: mGluR8 Gi/Go-coupled signaling modulation – cell-based, rat, thallium flux, HTS, primary screen (AID 488969); settings: HEK293 rat mGluR8, GIRK (G protein-gated inwardly rectifying potassium channel) thallium flux, FluoZin2; at 10 µM; stronger effect = higher value; submaximal glutamate (EC20) added with thallium
Chain of UniProt P70579 (P70579 whole entry, looked up): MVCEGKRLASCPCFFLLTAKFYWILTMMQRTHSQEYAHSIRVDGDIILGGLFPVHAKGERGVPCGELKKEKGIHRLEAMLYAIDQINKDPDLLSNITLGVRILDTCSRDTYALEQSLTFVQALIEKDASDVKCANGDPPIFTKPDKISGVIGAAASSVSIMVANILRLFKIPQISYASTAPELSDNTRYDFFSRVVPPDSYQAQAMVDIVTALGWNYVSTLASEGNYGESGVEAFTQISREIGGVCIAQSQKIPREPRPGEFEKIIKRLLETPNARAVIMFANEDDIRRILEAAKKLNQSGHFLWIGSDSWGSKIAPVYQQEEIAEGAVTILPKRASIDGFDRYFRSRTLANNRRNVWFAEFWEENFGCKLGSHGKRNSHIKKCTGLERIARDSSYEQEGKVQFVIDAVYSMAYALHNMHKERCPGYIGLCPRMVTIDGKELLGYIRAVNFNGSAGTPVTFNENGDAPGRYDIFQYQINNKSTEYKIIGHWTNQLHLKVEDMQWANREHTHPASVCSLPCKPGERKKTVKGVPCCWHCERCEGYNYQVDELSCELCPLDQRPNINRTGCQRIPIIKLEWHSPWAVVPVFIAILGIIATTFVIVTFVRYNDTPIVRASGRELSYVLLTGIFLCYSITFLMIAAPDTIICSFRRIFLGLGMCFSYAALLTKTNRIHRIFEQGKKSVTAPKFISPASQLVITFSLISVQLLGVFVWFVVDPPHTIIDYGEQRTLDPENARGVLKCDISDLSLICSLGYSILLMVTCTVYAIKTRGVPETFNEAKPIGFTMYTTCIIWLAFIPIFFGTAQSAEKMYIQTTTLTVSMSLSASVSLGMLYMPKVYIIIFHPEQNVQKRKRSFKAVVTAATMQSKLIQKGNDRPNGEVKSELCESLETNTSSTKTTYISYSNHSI

SMILES	z-score
COc1cc(C(=O)NCCCNc2ccc([N+](=O)[O-])cc2)cc(OC)c1OC	0.339
Cc1ccccc1C(=O)NC(=S)Nc1ccc(Oc2ccc(Cl)cc2)cc1	2.74
COc1ccc(C(=O)Nc2nnc(-c3cccs3)s2)cc1	-0.0882
Cn1c(N2C(=O)CC(Cc3ccccc3)C2=O)nc2ccccc21 (stereo not given)	-0.0941
Cn1cnnc1SCc1nc(N)nc(Nc2ccccc2)n1	-0.167
CCOC(=O)C1CCN(C(=O)Cc2c(C(=O)O)n(C)c3ccccc23)CC1	-0.00284
Cc1ccccc1C(=O)NC1CCN(Cc2nnnn2CCc2ccccc2)CC1	-0.0124
CC(C)Oc1cccc(C(=O)Nc2ccc(CN3CCOCC3)cc2)c1	-0.248
Cc1ccc(S(=O)(=O)N(C)CC(=O)Nc2ccncc2)cc1	0.186
CCC(C)(C)NC(=O)C(c1cccs1)N(CC1CCCO1)C(=O)Cn1nnc2ccccc21 (stereo not given)	0.00257
OCCn1nc2c3ccccc3nc-2n(-c2ccccc2)c1=S	0.797
Cc1ccc(NC2=C(NC(=O)c3ccccc3)C(=O)c3ccccc3C2=O)cc1Cl	-0.235
CC(=O)c1cccc2c(O)c(C3=Nc4ccccc4C3=O)[nH]c12	-0.493
CCOc1ccc2[nH]c(C)c(CN3CCN(CC)CC3)c(=O)c2c1	0.635
O=C(C1CCC(C(=O)N2CCc3ccccc32)CC1)N1CCc2ccccc21 (stereo not given)	-0.247
COc1cc(C(=O)OCC(=O)Nc2cc(C)on2)ccc1OCc1ccccc1Cl	0.416
CN1C(=O)/C(=C/c2ccccc2OCc2cccc(F)c2)NC1=S	0.125
CC(C)Cc1csc(NC(=O)c2ccccc2Cl)c1C(=O)O	0.0535
CCOC(=O)C1C(c2ccccc2)C(C(=O)OCC)C1c1ccccc1 (stereo not given)	0.11
CCOC(=O)c1c(C)[nH]c(C(=O)OCC(=O)N2CC(C)OC(C)C2)c1C (stereo not given)	-0.0159
Cc1ccc(C(=O)CSc2ccccn2)cc1	0.961
Cc1ccc(OCC(O)CNS(=O)(=O)c2ccccc2C(=O)O)cc1 (stereo not given)	0.372
Cc1c(CCO)sc[n+]1CC(=O)OC12CC3CC(CC(C3)C1)C2	-0.0737
COc1ccc(-n2c(=O)c3c4c(sc3n3c(C)nnc23)COC(C(C)C)C4)cc1 (stereo not given)	-1.78
CC(=O)c1ccc(NC(=O)Nc2ccc([N+](=O)[O-])cc2C)cc1	0.0689
CCOc1ccc(NS(=O)(=O)c2ccc3[nH]cc(C(=O)NCCOC)c(=O)c3c2)cc1	0.292
Cn1c(SCc2nc3ccccc3[nH]2)nnc1-c1ccccn1	-0.342
COc1ccc(-c2cnnn2-c2ccc(N)cc2)cc1OC	0.24

SMILES	z-score
CC1CC(C)CN(S(=O)(=O)c2ccc(F)c(C(=O)Nc3ccc(Cl)cc3F)c2)C1 (stereo not given)	-0.0978
O=C(Nc1nccs1)c1cccc(N2C(=O)c3cccc4c([N+](=O)[O-])ccc(c34)C2=O)c1	-0.449
O=C(Nc1ncccc1Cl)c1ccccc1F	-0.685
CCOC(=O)C1CCN(C(=O)CCc2c(C)nc3cc(-c4ccccc4)nn3c2C)CC1	-0.548
Cc1cccc(NC(=O)C2CCN(S(=O)(=O)c3cccs3)CC2)n1	-0.0808
Cc1sc(NC(=O)c2cccc([N+](=O)[O-])c2)c(C(N)=O)c1-c1ccc(C(C)(C)C)cc1	-0.0995
Cc1ccc(/C=N/Nc2nc(C(C)(C)C)cs2)o1	-0.109
Cc1c(CN(C)C(=O)c2nn(C)cc2[N+](=O)[O-])cnn1C	-0.232
O=C(Nc1ccccn1)c1cccs1	1.07
CN(C)c1ccc(N/C=C/C(=O)c2ccco2)cc1	-0.26
CCCn1nnc(NC(=O)c2ccc(Cl)cc2Cl)n1	-0.0896
C/C(=N\NC(=O)c1ccc(C)cc1C)c1ccc2c(c1)OCO2	-0.785
Cc1sc(-c2ccncc2)nc1OC(=O)c1ccc(Cl)cc1	-0.12
CSc1nnnn1-c1ccc(C(=O)O)cc1	-0.129
Cc1ccc(NC(=O)CCCN2C(=O)c3cccc4cccc(c34)C2=O)cc1	-0.258
Cc1cc(NC(=O)c2ccc3c(c2)C(=O)N(CCC(C)C)C3=O)no1	0.184
CSc1nc(Oc2ccc(Cl)cc2)c2sccc2n1	-0.00455
CCC(C)(C)n1nnnc1C(c1cc2ccc(C)cc2[nH]c1=O)N(Cc1cccnc1)Cc1ccco1 (stereo not given)	-0.42
CCOC(=O)N1CCN(c2c(NCCc3ccccc3)c(=O)c2=O)CC1	0.00926
CC(=O)Nc1ccn(-c2ccccc2)n1	0.0787
CCCCc1ccc(-c2ccc(Br)cc2O)nc1	-0.337
O=C(O)CCCCCNc1nc(=S)[nH]c2ccccc12	0.209
Cc1nnc(N2CCN(Cc3ccccc3)CC2)[nH]c1=O	-1.08
Cc1ccc(S(=O)(=O)c2cc3ccccc3oc2=Nc2ccc3c(c2)OCCO3)cc1	-0.356
CCOC(=O)c1[nH]cc(-c2ccccc2)c1N1CCOCC1	0.239
Cc1noc(N)c1C(=O)Nc1ccccc1F	0.0468
CCn1c(SCC(=O)N2CCCc3ccccc32)nc2cccnc21	-0.0554
